The source of these data is article PMC7819943, “Rice protein-binding microarrays: a tool to detect cis-acting elements near promoter regions in rice”.

The list shows a part of the results.

The target of this test is T1, OsWOX13 (Oryza sativa, UniProt Q5QMM3 1-267).
T1 sequence: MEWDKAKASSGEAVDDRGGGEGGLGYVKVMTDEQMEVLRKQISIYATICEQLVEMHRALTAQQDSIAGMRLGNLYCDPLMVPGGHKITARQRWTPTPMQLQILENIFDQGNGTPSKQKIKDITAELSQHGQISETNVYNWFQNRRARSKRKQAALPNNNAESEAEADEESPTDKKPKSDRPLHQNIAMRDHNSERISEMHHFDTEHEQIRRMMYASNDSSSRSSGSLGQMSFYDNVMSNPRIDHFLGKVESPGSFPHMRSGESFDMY
Kind of test: protein-binding microarray (RPBM); PBS, 2% BSA, 51.3 ng/ul salmon testes DNA, 50 uM zinc acetate, 200 nM TF, 25 C, 1 h; high values mean tight binding. The note with it: protein: recombinant; tags: N-terminal polyhistidine and DsRed monomer fusion (pET32a); label: CyDye5-dUTP incorporated in the synthesized complementary strand; 3' TTTTT single-stranded linker to array surface; dsDNA, one strand shown. The gist of the method: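 The binding signal for each feature is its fluorescence intensity in arbitrary units. An Axon 4000B scanner was used to read a custom Agilent array that had been made double-stranded with Cy5-dUTP primer extension, blocked with 2% BSA, incubated at 25 °C for 1 h with 200 nM protein in PBS, 2% BSA, salmon testes DNA and 50 µM zinc acetate, and washed. The protein was an N-terminal polyhistidine–DsRed transcription factor fusion from E. coli BL21-CodonPlus, purified on Ni–NTA.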
Turning to “CACTAAGTACTGTAATTAATTATCACCACCATCAAATCATCGGAGTCACCTAGTGCAG”, the binding signal was 17300 fluorescence intensity (a.u.).

For “GTGGAAATCATTTCCATATCAATTAGCCAAACAGGGCCTGCGGAGTCACCTAGTGCAG”, the binding signal is 17100 fluorescence intensity (a.u.).

“ATTATAATTAACTCGGCAATTTGGTTCGACGACGTGATGACGGAGTCACCTAGTGCAG”: the binding signal was 23200 fluorescence intensity (a.u.).

On to “GTCTTGTATTCAAATTTATTATAATTTAGCCGTAACAAAACGGAGTCACCTAGTGCAG”, for which the binding signal was 4850 fluorescence intensity (a.u.).

Take “ATTGATCAGTGATCTAGTAACTGACATTTCTATTCAATATCGGAGTCACCTAGTGCAG”: the binding signal is 3840 fluorescence intensity (a.u.).

As to “AATTTGAATTTTGTTAAGTTAAATTTGATGAACTGGGGCCCGGAGTCACCTAGTGCAG”, the binding signal was 5490 fluorescence intensity (a.u.).

Consider “GTTCGGTAGATTAGCGTGTCATTAGTGTGCTAATTGGAGTCGGAGTCACCTAGTGCAG”, for which the binding signal is 9880 fluorescence intensity (a.u.).

Turning to “AGAATTATGATGAAAATGATTGAATCGCTCAATTTCGGAACGGAGTCACCTAGTGCAG”, the binding signal is 24400 fluorescence intensity (a.u.).

For “TAAACTCGTCTTATCCGCATGATTGTTGACTATAGTATGTCGGAGTCACCTAGTGCAG”, the binding signal was 3880 fluorescence intensity (a.u.).

“CATATGTACAAATTAAATTTGTTCTACCCATTGCAACACACGGAGTCACCTAGTGCAG”: the binding signal was 10300 fluorescence intensity (a.u.).

On to “AGATTGACAGACACATTTGGAAGTGTTTCCCTGGCCTCACCGGAGTCACCTAGTGCAG”, for which the binding signal is 39200 fluorescence intensity (a.u.).

Consider “TTCGCACAATCATCAATTTAAGACCTCAAGTTTACAGAAACGGAGTCACCTAGTGCAG”, for which the binding signal is 5220 fluorescence intensity (a.u.).

With “GGTCGATGATGATGATGACGACGACGAGAGGAGGAGAGATCGGAGTCACCTAGTGCAG”, the binding signal was 3300 fluorescence intensity (a.u.).

Regarding “GGATTAAATTATCAAATAGATTTGGCTGCCATGATGGCACCGGAGTCACCTAGTGCAG”, the binding signal is 42600 fluorescence intensity (a.u.).

Consider “TTCTATAATGCAATTCAATTGATTATAAAGCAACTGAAAACGGAGTCACCTAGTGCAG”, for which the binding signal is 5080 fluorescence intensity (a.u.).

For “AGTGATAGTAACATTGTTTACACAAATTACATATCTATGTCGGAGTCACCTAGTGCAG”, the binding signal was 3500 fluorescence intensity (a.u.).

For the sequence “CTAAATTAATCCATATACGATTTACTGTATTTTCCTCTCACGGAGTCACCTAGTGCAG”, the binding signal was 18000 fluorescence intensity (a.u.).

On to “GCCTAATTAAAGCCCACATACTGAACTGGGCCGGCCCACTCGGAGTCACCTAGTGCAG”, for which the binding signal was 3560 fluorescence intensity (a.u.).

Regarding “TAGTTTTGTAAATGATTGAAATTTTCTAGTGTTAAATAGGCGGAGTCACCTAGTGCAG”, the binding signal is 34800 fluorescence intensity (a.u.).

Consider “ACGTTCAAATTGCTCTAATCAGACGAAAACTTAATCATGTCGGAGTCACCTAGTGCAG”, for which the binding signal is 7310 fluorescence intensity (a.u.).

“TTGCCAAATTTTGATATGATATCTTATGTATTTATCAGAGCGGAGTCACCTAGTGCAG”: the binding signal was 4410 fluorescence intensity (a.u.).

For the sequence “CTAATGACGAGATTAATTAGGCTTAATAAATTCGTCTCGCCGGAGTCACCTAGTGCAG”, the binding signal is 54800 fluorescence intensity (a.u.).

For “CAATTAATGGACTCCAATTAACCTAACCATTTCTACACTGCGGAGTCACCTAGTGCAG”, the binding signal is 26500 fluorescence intensity (a.u.).

For the sequence “CTCAATGAGTTCTTAATTAGTAATCAGATGGTCAATACACCGGAGTCACCTAGTGCAG”, the binding signal was 11500 fluorescence intensity (a.u.).

As for “CCGGGAATCAATTTACTTATGATAGGGACAATAAGATATTCGGAGTCACCTAGTGCAG”, the binding signal is 11200 fluorescence intensity (a.u.).

Turning to “TTAAATTAGCGTCCAAACATTCGATGTGACATGGACTAAGCGGAGTCACCTAGTGCAG”, the binding signal was 18100 fluorescence intensity (a.u.).

For “CAATTTAAATGACAATTAATCTTTAGTATATATTCTTGTTCGGAGTCACCTAGTGCAG”, the binding signal is 22700 fluorescence intensity (a.u.).

Consider “AGCCAATTTGATTGCTTGCAAAATTGTGCCAAATTTTCAGCGGAGTCACCTAGTGCAG”, for which the binding signal was 40900 fluorescence intensity (a.u.).

In the case of “CCCACATTGACTGACTGATCGACCAGGCTGTTTACCTTCGCGGAGTCACCTAGTGCAG”, the binding signal was 30100 fluorescence intensity (a.u.).

Regarding “CAAACAAATAAAATTGACGTCAAGAAAATAAAGTTATGGTCGGAGTCACCTAGTGCAG”, the binding signal is 16800 fluorescence intensity (a.u.).

Regarding “TATAATTTGGTGGGCGCACCACTAACGTGTATATTTAGTGCGGAGTCACCTAGTGCAG”, the binding signal was 4700 fluorescence intensity (a.u.).

For the sequence “AATAAATTTGTCCCGCACTTTACAGGCGGATTACGTAATTCGGAGTCACCTAGTGCAG”, the binding signal is 10500 fluorescence intensity (a.u.).

“TATCAGTTATTTGATGAATCAGACTAACAAATCGTTAAGCCGGAGTCACCTAGTGCAG”: the binding signal is 5220 fluorescence intensity (a.u.).

Turning to “CGAATTTCTGATTAAGATTCTTTCCTGACATGCGGGCCCACGGAGTCACCTAGTGCAG”, the binding signal was 3600 fluorescence intensity (a.u.).

On to “TATTAATTTCTTTGTAACGCCTACAGTGTACTCTTCGCTTCGGAGTCACCTAGTGCAG”, for which the binding signal was 14500 fluorescence intensity (a.u.).

As to “TAATCATAAACTAATTAGACTCAAAAGATTCCTCTCGCGACGGAGTCACCTAGTGCAG”, the binding signal is 16600 fluorescence intensity (a.u.).

As for “AGTGCAAATTATATCTCATCATCTTAATTCATTCAAGATCCGGAGTCACCTAGTGCAG”, the binding signal was 13400 fluorescence intensity (a.u.).

As to “CGTATAATTGCAGGTTGGCTCTTAGTTTAAAATCGTTCGACGGAGTCACCTAGTGCAG”, the binding signal is 12100 fluorescence intensity (a.u.).

Consider “GGAAAACGTGGTAAACTGGTGATTGAATCTAAAAGTAGCACGGAGTCACCTAGTGCAG”, for which the binding signal was 18900 fluorescence intensity (a.u.).

Consider “GTTCTAATTTTAGAAAATTACAATGGCATTAACTCGATTTCGGAGTCACCTAGTGCAG”, for which the binding signal is 22400 fluorescence intensity (a.u.).

Regarding “TTGCAAAGGTAATTAATCAAGCACACACGCATTAAGGCATCGGAGTCACCTAGTGCAG”, the binding signal was 4460 fluorescence intensity (a.u.).

With “ATACAAGATTGTTGTCGAATTAGTTAACGGTGTGGTTTTACGGAGTCACCTAGTGCAG”, the binding signal was 3860 fluorescence intensity (a.u.).
